Experimental data as given in FireProtDB (doi:10.1016/s0022-2836(03)00321-8).

Conditions: Homo sapiens; pH 6.6; 25 °C; GdnHCl; Fluorescence; N-(2-acetamido)-iminodiacetic acid 20 mM; NaCl 100 mM; reversible: yes

Fibroblast growth factor 1 wild type (sequence not shown)
denaturant m value: 4.52 kcal/mol/M
denaturant midpoint (higher = more stable): 1.11 M
unfolding free energy: 5.04 kcal/mol
